{
  "source": "PubChem BioAssay AID504332",
  "about": "(National Center for Advancing Translational Sciences (NCATS), 2011)",
  "note": "Several values for one entry are separate records, joined by “and”; a condition that tells them apart may be missing. Equal entries are not always repeated. Among all 350,000 compounds or so, about 31,000 (8.9%) were called active. This list was built around the results that the source calls inconclusive (neither active nor inactive); the mix of calls is not that of the screen. Calls come from the whole dose curve; as a rule, active = well fitted inhibition curve with a large enough effect; inconclusive = small, poorly fitted or top-dose-only effect; inactive = no such curve, though single readings can be large or run the other way. Where the call is inconclusive, the potency comes from a doubtful curve fit. % is set by controls: 0 for no effect and ±100 for the full control effect; potency is the fitted concentration of half-maximal effect; tags give direction and shape of the fitted curve.",
  "data": [
    {"molecular_target": "Histone-lysine N-methyltransferase EHMT2 (Homo sapiens) (UniProt Q96KQ7)", "sequence (Q96KQ7 whole entry, looked up)": "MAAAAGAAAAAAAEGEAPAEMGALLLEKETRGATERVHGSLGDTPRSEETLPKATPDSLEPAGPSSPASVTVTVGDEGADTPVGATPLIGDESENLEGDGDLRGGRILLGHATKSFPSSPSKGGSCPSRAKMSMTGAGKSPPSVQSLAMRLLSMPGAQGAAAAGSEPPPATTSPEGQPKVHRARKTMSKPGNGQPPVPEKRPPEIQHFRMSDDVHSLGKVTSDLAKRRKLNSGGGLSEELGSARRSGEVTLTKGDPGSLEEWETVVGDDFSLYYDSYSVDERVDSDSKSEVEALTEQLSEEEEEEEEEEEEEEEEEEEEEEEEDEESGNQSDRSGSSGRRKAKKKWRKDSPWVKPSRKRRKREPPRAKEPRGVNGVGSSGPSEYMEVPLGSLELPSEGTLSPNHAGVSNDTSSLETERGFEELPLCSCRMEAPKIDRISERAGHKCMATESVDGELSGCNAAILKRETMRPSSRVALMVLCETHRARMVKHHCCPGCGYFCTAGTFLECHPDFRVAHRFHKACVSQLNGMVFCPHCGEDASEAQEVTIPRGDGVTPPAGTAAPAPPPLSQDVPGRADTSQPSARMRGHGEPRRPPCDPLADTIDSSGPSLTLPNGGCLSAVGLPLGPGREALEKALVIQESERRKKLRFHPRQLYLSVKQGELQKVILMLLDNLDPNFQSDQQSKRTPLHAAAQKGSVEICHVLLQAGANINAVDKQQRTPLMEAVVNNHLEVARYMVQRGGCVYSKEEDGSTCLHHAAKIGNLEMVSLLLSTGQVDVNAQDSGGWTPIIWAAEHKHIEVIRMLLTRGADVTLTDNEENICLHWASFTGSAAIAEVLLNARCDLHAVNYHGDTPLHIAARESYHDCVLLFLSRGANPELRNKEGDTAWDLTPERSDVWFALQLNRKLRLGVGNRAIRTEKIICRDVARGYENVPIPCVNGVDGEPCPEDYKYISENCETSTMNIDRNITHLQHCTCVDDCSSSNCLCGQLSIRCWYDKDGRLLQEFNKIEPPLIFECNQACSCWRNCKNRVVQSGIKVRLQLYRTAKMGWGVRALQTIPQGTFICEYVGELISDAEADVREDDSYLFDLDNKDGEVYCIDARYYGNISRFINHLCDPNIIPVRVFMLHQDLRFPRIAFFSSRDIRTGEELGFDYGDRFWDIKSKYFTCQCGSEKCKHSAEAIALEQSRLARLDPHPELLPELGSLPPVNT", "assay": "qHTS Assay for Inhibitors of Histone Lysine Methyltransferase G9a; note: nearly all actives have a fitted effect of over 75% in size", "conditions": "G9a H3K9 monomethylation, AlphaScreen, 2 h; activity, negative = inhibition: at 59 µM (top of the series) unless noted", "procedure,_shortened": "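Step 1: enzyme (final 20 nM) with compound, 15 min RT. Step 2: substrate peptide 500 nM and SAM 20 uM, 2 h RT. Step 3: anti-H3K9me1 antibody and AlphaScreen beads, 10 min, then plate read.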", "values": [
      {"smiles": "CN(C)c1ccc(-c2nnn(CC(=O)N3c4ccccc4CCc4ccccc43)n2)cc1", "Potency": "inconclusive: 6.31 µM [inhibitor, partial curve]"},
      {"smiles": "COc1ccc(-c2noc(-c3ccccc3C(=O)NCc3ccco3)n2)cc1OC", "Potency": "inconclusive: 25.1 µM [inhibitor, partial curve, poor fit]"},
      {"smiles": "C#CCOCCOCCOCCNc1nc(N2CCN(C(=O)[C@H](CCCCN)n3cc([C@@H](N)CO)nn3)CC2)nc(N2CCN(C(=O)[C@H](Cc3ccc(O)cc3)n3cc([C@@H](N)CC(C)C)nn3)CC2)n1", "activity, negative = inhibition": "inconclusive: -101% [inhibitor]"},
      {"smiles": "C=C(C)CSc1nnc2n(C)c(=O)c3c4c(sc3n12)CCC4", "Potency": "inconclusive: 1.58 µM [inhibitor, partial curve]"},
      {"smiles": "CCN1CCN(c2cc(C)c3cc(NC(=O)c4cc(OC)cc(OC)c4)ccc3n2)CC1", "Potency": "inconclusive: 6.31 µM [inhibitor, full curve, poor fit] and inconclusive: 70.8 µM [inhibitor, single point]"},
      {"smiles": "Brc1ccccc1C1Nc2cccc3cccc(c23)N1", "Potency": "active: 44.7 µM"},
      {"smiles": "CCN(CC)c1ccc(NC(=O)c2ccc(=O)[nH]c2)cc1S(=O)(=O)Nc1ccc(OC)cc1", "Potency": "inconclusive: 79.4 µM [inhibitor, partial curve, poor fit]"},
      {"smiles": "Cc1cccc(NC(=O)CSCC(=O)N2CCCc3ccccc32)c1", "Potency": "inconclusive: 89.1 µM [inhibitor, single point]"},
      {"smiles": "CC(C)(C)C(=O)N1CCN(c2ccc([N+](=O)[O-])c(-n3nc(-c4ccccc4)c4ccccc4c3=O)c2)CC1", "Potency": "inconclusive: 79.4 µM [inhibitor, single point]"},
      {"smiles": "CC1CCN(C(=O)c2ccc(NC(=O)c3nsc4ccccc34)cc2)CC1", "Potency": "inactive"},
      {"smiles": "COc1cc(CC(=O)OCC(=O)Nc2ccc(S(=O)(=O)N3CCCC3)cc2)cc(OC)c1OC", "Potency": "inactive"},
      {"smiles": "CCc1ccc(N=c2c([N+](=O)[O-])nn(-c3ccccc3)n2O)cc1", "activity, negative = inhibition": "inconclusive: -107% [inhibitor]"},
      {"smiles": "N#CC12COC3(CCCCC3C1(C#N)C#N)OC2=N", "note": "(configuration not stated)", "Potency": "inconclusive: 79.4 µM [inhibitor, single point]"},
      {"smiles": "COC(=O)C1CCN(C(=O)COC(=O)c2cccc(NS(=O)(=O)c3ccccc3)c2)CC1", "Potency": "inconclusive: 89.1 µM [inhibitor, single point]"},
      {"smiles": "COc1ccc(N2C(=O)CCSC23C(=O)N(Cc2ccc(F)cc2)c2ccccc23)cc1Cl", "note": "(configuration not stated)", "Potency": "inconclusive: 7.94 µM [inhibitor, partial curve, poor fit]"},
      {"smiles": "CCOC(=O)C1CCCCN1Cc1cccc(C(F)(F)F)c1", "note": "(configuration not stated)", "Potency": "inconclusive: 79.4 µM [inhibitor, single point]"},
      {"smiles": "CNS(=O)(=O)c1cccc(C(=O)OCC(=O)c2ccc3c(c2)OCCO3)c1", "Potency": "inconclusive: 1.78 µM [inhibitor, full curve]"},
      {"smiles": "O=C(Nc1ccc(Cl)cc1C(=O)N1CCOCC1)c1cccc([N+](=O)[O-])c1", "Potency": "inactive"},
      {"smiles": "Cc1cc(C)nc(NNS(=O)(=O)c2ccc(F)c(Cl)c2)n1", "Potency": "inconclusive: 14.1 µM [inhibitor, partial curve, poor fit]"},
      {"smiles": "CCc1ccc(CN(C)Cc2nc(Cc3ccccc3)no2)nc1", "Potency": "inconclusive: 39.8 µM [inhibitor, single point]"},
      {"smiles": "COC(=O)c1ccc(C(=O)OC)c(NC(=O)CN2CCN(c3ccccc3)CC2)c1", "Potency": "inconclusive: 1 µM [inhibitor, full curve, poor fit]"},
      {"smiles": "COC(=O)N1CCC2(CCCN(Cc3ccc(C#N)cc3)C2)CC1", "activity, negative = inhibition": "inactive: -21% [at 12.7 µM]"},
      {"smiles": "COc1ccc(N2CCN(S(=O)(=O)CCNC(=O)c3ccc(Br)o3)CC2)cc1", "Potency": "active: 79.4 µM"},
      {"smiles": "COc1cc2c(cc1NC(=O)CSc1nccn1C)oc1ccccc12", "Potency": "inconclusive: 28.2 µM [inhibitor, single point]"},
      {"smiles": "O=C(NC1CC(=O)N(c2ccc(Cl)cc2)C1)C1CCCCC1", "note": "(configuration not stated)", "Potency": "inconclusive: 39.8 µM [inhibitor, partial curve, poor fit]"},
      {"smiles": "COc1cc(C(=O)NCCSc2c(C)[nH]c3ccccc23)cc(OC)c1OC", "Potency": "inactive"},
      {"smiles": "CN(C)CCC(=O)c1ccc(Cl)cc1", "Potency": "active: 6.31 µM"},
      {"smiles": "COc1ccc(-c2nc(C)ncc2N=Nc2ccccc2)cc1", "Potency": "inconclusive: 28.2 µM [inhibitor, single point]"},
      {"smiles": "O=C(NCCNCCO)c1c(O)c2cccc3c2n(c1=O)CCC3", "Potency": "inconclusive: 3.55 µM [inhibitor, partial curve, poor fit]"},
      {"smiles": "OCCCCNc1cccc2ccccc12", "Potency": "inconclusive: 0.316 µM [inhibitor, full curve, poor fit]"},
      {"smiles": "Cn1c(CNc2ccc(O)cc2)nc2ccccc21", "Potency": "inconclusive: 79.4 µM [inhibitor, single point]"},
      {"smiles": "Cc1ccc(N(CCC#N)C(=O)COC(=O)C2CCN(c3ccc(C(F)(F)F)cn3)CC2)cc1", "Potency": "inconclusive: 44.7 µM [inhibitor, partial curve, poor fit]"},
      {"smiles": "CCCCCc1c(C)nc(Nc2ccccc2)[nH]c1=O", "Potency": "inactive"},
      {"smiles": "CCc1ccccc1NC(=O)[C@H](Cc1ccccc1)N1Cc2ccccc2C1=O", "Potency": "inactive"},
      {"smiles": "S=C1NC(c2ccccc2)=NCN1c1ccccc1", "Potency": "inactive"},
      {"smiles": "Cc1cc(C)c(NC(=O)CSc2nnc(SCC(=O)Nc3c(C)cc(C)cc3C)n2N)c(C)c1", "Potency": "inconclusive: 89.1 µM [inhibitor, single point]"},
      {"smiles": "COc1ccc(C/C(C)=N/NC(=O)c2ccncc2)cc1", "Potency": "inactive"},
      {"smiles": "C/C(=N\\NC(=O)C1CC1)c1cccs1", "Potency": "inactive"},
      {"smiles": "COc1cccc(C(=O)Nc2nc3ccc(S(C)(=O)=O)cc3s2)c1", "Potency": "inconclusive: 39.8 µM [inhibitor, single point]"},
      {"smiles": "O=C1CC(N2CCN(c3nc4ccccc4s3)CC2)C(=O)N1Cc1cccs1", "note": "(configuration not stated)", "activity, negative = inhibition": "inconclusive: -107% [inhibitor]"},
      {"smiles": "COc1cccc(NS(=O)(=O)c2cc(-c3cnc(C4CC4)o3)ccc2C)c1", "Potency": "inconclusive: 28.2 µM [inhibitor, partial curve, poor fit]"},
      {"smiles": "NC(=O)c1nn(-c2cccc(Cl)c2)c(=O)cc1O", "Potency": "inconclusive: 79.4 µM [inhibitor, single point]"}
    ]}
  ]
}
